For 14 molecules, binding signal results are on record in paper PMC12136788.

To fix the notation:
T1: UNK ZnF1-3 (human, UniProt Q9C0B0 31-174)
T1 sequence: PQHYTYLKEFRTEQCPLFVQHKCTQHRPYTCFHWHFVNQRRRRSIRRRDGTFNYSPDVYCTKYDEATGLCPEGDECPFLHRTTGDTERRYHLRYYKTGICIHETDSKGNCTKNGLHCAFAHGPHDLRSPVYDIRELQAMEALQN

B1: chr10:85910540:85910541:+_ENSG00000165678_ENST00000372134|perfect_dup|FALSE|FALSE (ssRNA)
RNA: GGGAGUUCUACAGUCCGACGAUCUUCUGCACGCUUGAUUACUUUCUGGGUAUCAUACAGAAGGAACAUGCUGAAAAGAACUAAUCCACCGUACAUUGCCACUGAGUAAAGAGUGGCACCAGCCACGGUGGUAGGUGGAAGAAACAACAGAGGAUUGAGCAUCA
B2: chr7:56126341:56126342:+_ENSG00000146731_ENST00000540286|hu_mus|hu_hu_hu_mus_True|38_88 (ssRNA)
RNA: GGGAGUUCUACAGUCCGACGAUCCAUGUUUCUCCUCUUGGCUCUGCGCAGAGCAACGAUCCCUUCUUUCGCAAGGGCAUCUAAGGAAAAGGGGUCAAUUCCCUUUUGAUUAAUAACGACAAAUCCUUUAUCUGAGUCACCACACAACAGAGGAUUGAGCAUCA
B3: chr7:56126341:56126342:+_ENSG00000146731_ENST00000540286|hu_mus|hu_hu_hu_mus_True|38_68 (ssRNA)
RNA: B2 RNA with A54U, C69U, C71A, G75A
B4: 36889487_36891479_500_CDS_ENSMUSG00000034243_ENSMUST00000039855|mouse|control|control (ssRNA)
RNA: GGGAGUUCUACAGUCCGACGAUCUUCCAUCUCUGCAGAACUCUUAUCCAACUGCGAGGCUUGUUCUGAUUGGUCAAGCUGGGCUUGCAAACUACUAAUUAAUUUCUCCUUUUCCUGGAGUUCAUGUUUUAUUUUUUCUAUUUCCAACAGAGGAUUGAGCAUCA
B5: chr11:29096238:29096239:+_ENSMUSG00000020463_ENSMUST00000020755|mus_mus|FALSE|FALSE (ssRNA)
RNA: GGGAGUUCUACAGUCCGACGAUCUUGCAAGUCAUCCAUGCCCAUUACAAUUUCAAGAGCUGGAAGAAUUCCCAAUUUUGCUAAGGUUUUGAAAAAAGCAUCCCUGUUCUGAGGUUGCAAUGUCUGAGAAAAUGCACAAAAUUCCAACAGAGGAUUGAGCAUCA
B6: chr18:34481789:34481790:+_ENSMUSG00000005871_ENSMUST00000115781|mus_mus|motif|central (ssRNA)
RNA: GGGAGUUCUACAGUCCGACGAUCAACAAGUGAACAGAAGUAUAGAGAAAAAUUAUCCUGAAUAUCAGAGGAAAGAAAGUCGGUUUAGCACCAAGAACAGCAUUAUACACAGAACAUACAGUCGGAAAGAUGCAUCAAUGGCCUCAACAGAGGAUUGAGCAUCA
B7: chr7:54823571:54823572:-_ENSG00000132432_ENST00000352861|hu_mus|hu_hu_hu_mus_False|28_88 (ssRNA)
RNA: GGGAGUUCUACAGUCCGACGAUCUCCCAUGAUAGCAAAUCCUAUAGCUGUUGCCAUGGCAAUCUUCUGGAAUUCUUUUCUGUCGGGUUUGGUGCAUCUUUUAACCAGCCGAAUGGAGUCCUUUACAAACUGCCGGCUGGGCUCCAACAGAGGAUUGAGCAUCA
B8: chr3:87781927:87781928:+_ENSMUSG00000004891_ENSMUST00000090973|mus_mus|FALSE|FALSE (ssRNA)
RNA: GGGAGUUCUACAGUCCGACGAUCCUGCUCCCUCUCCGGGCCCUCUUCCACUUCCAGGCACUGCUGACUGUCCUCCACCCCUCCUGGUGAUUCCACAGUCUCUGGGUUCCACUUGCCCAGAGAUCUCAGUUCUUGACUCUCCCUCAACAGAGGAUUGAGCAUCA
B9: chr18:5290039:5290040:-_ENSG00000198081_ENST00000357006|hu_hu|motif|central (ssRNA)
RNA: GGGAGUUCUACAGUCCGACGAUCCUAGGAAAUCUUGGGAUUGUUACACAUGUAAAAAACCUUAUCUCUGAGAGCCUUUUCGGUUCUUCUUACCACAGGUCCACUCACAAAUCGCAGCUGGUAUGGACUGGUACUGCCCCAAAUCAACAGAGGAUUGAGCAUCA
B10: chr2:48026839:48026840:+_ENSG00000116062_ENST00000540021|hu_hu|hu_hu_hu_mus_False|1_98 (ssRNA)
RNA: GGGAGUUCUACAGUCCGACGAUCAUAGUGAGCCACUAGAGUCCUAAAUCUGGAACAGUGGCGGUCAUCCGAAAACUGGCCGAUGAAAAACUUGCCCAGUGAAGUGUCCACAAAGCAAACACCAUACACACGAGUGUGGCCAGACAACAGAGGAUUGAGCAUCA
B11: chr22:19452774:19452775:-_ENSG00000070010_ENST00000399523|hu_hu|hu_hu_hu_mus_False|78_88 (ssRNA)
RNA: GGGAGUUCUACAGUCCGACGAUCCUUCUCAUUGUAGUUGAUAGCAAUCACAUCCCCGGUGGUCAGACAGGCGAAGUUUCUCAAUGCAUUUUCUAAUACCGCUUUAGGGUUGGUAAUAUCCAGGAAGUCUGGGCUCUGAGGCUGCAACAGAGGAUUGAGCAUCA
B12: chr15:76588000:76588001:-_ENSG00000140374_ENST00000560595|hu_mus|motif|central (ssRNA)
RNA: GGGAGUUCUACAGUCCGACGAUCGGACACUUCACCUCCAAGACGUCCAGCUGCAGUGAUAGUAUUUAGAGUAAUGGGUGCGGGGGAAUCAUUUGCAUGCUCAGCUAUUACCAAGGUACUCUGAAAACGGAGCAAUGAGGCCGCCAACAGAGGAUUGAGCAUCA
B13: chr6:41757443:41757444:+_ENSG00000214736_ENST00000398881|hu_mus|hu_hu_hu_mus_False|48_68 (ssRNA)
RNA: GGGAGUUCUACAGUCCGACGAUCGAACCGUGCAGAGGCAACAUCUCAGCCGACACUGGGGGAUGGGGGAACAAAAGGGGGGGGUUCAGGGAAGGGGAGGGAGUCAACUUCAGCUGCCACUCAGGUAGGAUCUUGUGGUCACAGCAACAGAGGAUUGAGCAUCA
B14: chrX:71549400:71549401:+_ENSMUSG00000019087_ENSMUST00000019231|mus_hu|mus_mus_mus_hu_False|1_8 (ssRNA)
RNA: GGGAGUUCUACAGUCCGACGAUCGCAGUAGGAAGAGGGAAGCUCUUCAGUCCAGUGCGCUGCAGGGUGGGAAAGCAACAACACGGACACCGUCCCACCCUCAACCCCCCCACUGGCACAGGGUCACAUCUGGGUCAAAGUGAUCAACAGAGGAUUGAGCAUCA

Substitutions are numbered along the chain they refer to. The list shows a part of the results.

For the assay, the target named is T1, UNK ZnF1-3. As to the kind of experiment: nsRBNS (natural sequence RNA bind-n-seq); RBNS binding buffer (assumed for nsRBNS): 25 mM Tris pH 7.5, 150 mM KCl, 3 mM MgCl2, 0.01% Triton X-100, 500 ug/ml BSA, 20 U/ml SUPERase-In, 4 C; UNK is unkempt and MSI1 is Musashi-1; names of the RNAs are library labels; protein concentration not given here; high values mean tight binding.
Molecule B1 gave a binding signal of 1.38 enrichment R.

Molecule B2 came in with a binding signal of 1.11 enrichment R.

As to B3, the binding signal came to 1.58 enrichment R.

Regarding B4, the binding signal was determined as 0.576 enrichment R.

For the molecule B5, the binding signal worked out at 1.24 enrichment R.

For the molecule B6, the binding signal came out at 2.01 enrichment R.

Take B7: the binding signal is 0.74 enrichment R.

For B8, the binding signal is 0.971 enrichment R.

B9 gave a binding signal of 0.93 enrichment R.

B10 gave a binding signal of 0.947 enrichment R.

In the case of B11, the binding signal was 0.971 enrichment R.

Molecule B12 had a binding signal of 1.59 enrichment R.

In turn, B13 showed a binding signal of 2.26 enrichment R.

For the molecule B14, the binding signal came to 1.17 enrichment R.
